The list shows a part of the results.

The test system of the experiment is HepG2. In words: cytotoxicity call (relative viability < 0.9). Conditions: 10 µM.
Regarding `COc1ccc(S(=O)(=O)N(C)C[C@H]2OCCCC[C@@H](C)Oc3ccc(NC(=O)CCC(F)(F)F)cc3C(=O)N([C@H](C)CO)C[C@@H]2C)cc1`, the cytotoxicity call is “inactive”.

As to `C[C@@H]1CCCCO[C@@H](CN(C)C(=O)C2CCCCC2)[C@@H](C)CN([C@@H](C)CO)C(=O)c2cc(NC(=O)Nc3ccc4c(c3)OCO4)ccc2O1`, the cytotoxicity call is “inactive”.

Consider `OCC1OC(Oc2ccc(O)cc2)C(O)C(O)C1O` (stereo not given), for which the cytotoxicity call was “inactive”.

Take `CN1CCN(C(=O)C[C@@H]2CC[C@@H]3[C@H](COC[C@@H](O)CN3C(=O)Nc3cc(Cl)cc(Cl)c3)O2)CC1`: the cytotoxicity call was “inactive”.

Take `CCS(=O)(=O)Nc1ccc2c(c1)C(=O)N(C)[C@@H]1CC[C@H](CC(=O)NCCCN3CCOCC3)O[C@H]1CO2`: the cytotoxicity call is “inactive”.

On to `C[C@@H]1CN([C@@H](C)CO)C(=O)c2cc(NS(C)(=O)=O)ccc2O[C@@H]1CN(C)Cc1ccc2c(c1)OCO2`, for which the cytotoxicity call was “inactive”.

Consider `C=CCC[C@@H](Cc1ccc(F)cc1)C(=O)OC[C@@H](NC(=O)[C@H](CC=C)CC(=O)N(CCO)Cc1ccccc1)C(C)(C)C`, for which the cytotoxicity call is “inactive”.

Regarding `CCCN(C)C[C@@H]1OCCCC[C@H](C)Oc2ccc(NC(=O)CCC(F)(F)F)cc2C(=O)N([C@@H](C)CO)C[C@@H]1C`, the cytotoxicity call was “inactive”.

As to `C[C@@H]1CN([C@H](C)CO)C(=O)c2cccc(NC(=O)c3cnccn3)c2O[C@H]1CN(C)Cc1ccc(C(=O)O)cc1`, the cytotoxicity call was “inactive”.

Consider `COc1ccc(-c2ccc3n(c2=O)C[C@@H]2[C@@H](CO)[C@H](C(=O)NCC4CC4)[C@H]3N2S(C)(=O)=O)cc1`, for which the cytotoxicity call is “inactive”.

Take `CN1N=C(N)c2cn([C@@H]3O[C@H](COP(=O)(O)O)[C@@H](O)[C@H]3O)c3ncnc1c23`: the cytotoxicity call was “inactive”.

Turning to `COc1cccc(C#Cc2ccc3c(c2)O[C@H](CN(C)C(=O)CN2CCOCC2)[C@@H](C)CN([C@H](C)CO)S3(=O)=O)c1`, the cytotoxicity call is “inactive”.

Consider `C[C@H](CO)N1C[C@H](C)[C@H](CN(C)S(=O)(=O)c2ccccc2)OCCCC[C@H](C)Oc2ccc(NC(=O)c3ccccc3)cc2C1=O`, for which the cytotoxicity call is “inactive”.

For the compound `O=C(Cn1cc(COc2ccc3ccccc3c2)nn1)NS(=O)(=O)c1ccccc1OC(F)(F)F`, the cytotoxicity call was “inactive”.

`C[C@H]1CN([C@@H](C)CO)C(=O)c2ccccc2-c2ccccc2CO[C@@H]1CN(C)S(=O)(=O)c1ccc(C(F)(F)F)cc1`: the cytotoxicity call is “inactive”.

Consider `C[C@@H]1CN([C@H](C)CO)C(=O)Cc2cc(NC(=O)CCCCCC(=O)Nc3ccccc3N)ccc2O[C@H]1CN(C)C(=O)Nc1ccc(C(F)(F)F)cc1`, for which the cytotoxicity call was “inactive”.

On to `CN1CCN(C(=O)C[C@@H]2CC[C@@H]3[C@H](COC[C@@H](O)CN3S(=O)(=O)c3cccc(Cl)c3)O2)CC1`, for which the cytotoxicity call is “inactive”.

For the compound `COC(=O)c1cc(C)cc(=O)o1`, the cytotoxicity call is “inactive”.

As for `CCCCc1nn(-c2ccccc2C(F)(F)F)c(=O)n1Cc1ccc(-c2ccccc2S(=O)(=O)NC(=O)c2sccc2C)cc1`, the cytotoxicity call was “inactive”.

In the case of `CN1CCN(C(=O)C[C@H]2CC[C@@H]3[C@H](COc4ccc(NC(=O)c5cccs5)cc4C(=O)N3C)O2)CC1`, the cytotoxicity call was “inactive”.

For `COC(=O)CCCCCCC(=O)Nc1ccc([C@H]2O[C@@H](CSc3nc(-c4ccccc4)c(-c4ccccc4)o3)C[C@H](c3ccc([N+](=O)[O-])cc3)O2)cc1`, the cytotoxicity call was “inactive”.

With `O=C(C[C@@H]1C=C[C@@H](NC(=O)Nc2ccc3c(c2)OCO3)[C@H](CO)O1)NCCCN1CCOCC1`, the cytotoxicity call is “inactive”.

Regarding `CC(C)NC(=O)Nc1ccc2c(c1)CC(=O)N([C@@H](C)CO)C[C@@H](C)[C@@H](CN(C)Cc1ccc(-c3ccccc3)cc1)O2`, the cytotoxicity call is “inactive”.

Turning to `C[C@@H]1CN([C@@H](C)CO)C(=O)c2c(c3ccccc3n2C)-c2ccccc2CO[C@H]1CN(C)C(=O)NC1CCCCC1`, the cytotoxicity call was “inactive”.

As for `COc1ccc(S(=O)(=O)N(C)C[C@@H]2Oc3ncc(-c4ccncc4)cc3C(=O)N([C@@H](C)CO)C[C@H]2C)cc1`, the cytotoxicity call is “inactive”.

For `Cc1ccc(S(=O)(=O)N(C)C[C@@H]2OCCCC[C@@H](C)Oc3ccc(NC(=O)CCC(F)(F)F)cc3C(=O)N([C@@H](C)CO)C[C@H]2C)cc1`, the cytotoxicity call was “inactive”.

Take `C[C@@H]1CCCCO[C@@H](CN(C)Cc2ccc(C(F)(F)F)cc2)[C@@H](C)CN([C@@H](C)CO)C(=O)c2cc(NC(=O)Nc3cccc4ccccc34)ccc2O1`: the cytotoxicity call was “inactive”.

As for `C[C@@H]1CN([C@@H](C)CO)C(=O)c2cccc(NS(=O)(=O)c3ccccc3)c2O[C@@H]1CN(C)Cc1ccc(Oc2ccccc2)cc1`, the cytotoxicity call was “inactive”.

With `C[C@H](CO)N1C[C@H](C)[C@@H](CN(C)C(=O)Cc2ccncc2)Oc2cc(-c3cncnc3)ccc2S1(=O)=O`, the cytotoxicity call was “inactive”.

For the compound `CO[C@@H]1CN(C)C(=O)c2ccc(NS(=O)(=O)c3ccccc3C)cc2OC[C@@H](C)N(S(C)(=O)=O)C[C@H]1C`, the cytotoxicity call is “inactive”.

With `O=C(O)c1cc(-c2ccccc2)nc2ccccc12`, the cytotoxicity call was “inactive”.

`CO[C@@H]1CN(C)C(=O)c2cc(NC(=O)c3cc(C)on3)ccc2OC[C@@H](C)N(C(=O)C2CCC2)C[C@H]1C`: the cytotoxicity call was “inactive”.

On to `C[C@H]1Cc2c(N)nn(C)c2NC1=O`, for which the cytotoxicity call is “inactive”.

For `C[C@@H]1CN([C@@H](C)CO)C(=O)Cc2cc(N(C)C)ccc2O[C@H]1CN(C)S(=O)(=O)c1cn(C)cn1`, the cytotoxicity call was “inactive”.

For `Cc1nn(C)c(C)c1CN`, the cytotoxicity call was “inactive”.

For the compound `C[C@H]1CN([C@@H](C)CO)C(=O)c2cc(NS(=O)(=O)c3ccc(F)cc3)ccc2O[C@H]1CN(C)C(=O)Nc1cccc2ccccc12`, the cytotoxicity call is “inactive”.

On to `CCO[C@@H]1OC(C(=O)N2CCN(Cc3ccc4c(c3)OCO4)CC2)=C[C@H](C)[C@H]1CCCOC(=O)NCCCCCC(=O)NO`, for which the cytotoxicity call is “inactive”.

With `C[C@H]1CCCCO[C@@H](CN(C)Cc2ccc(C(=O)O)cc2)[C@@H](C)CN([C@@H](C)CO)C(=O)c2cc(NC(=O)C3CCCCC3)ccc2O1`, the cytotoxicity call is “inactive”.

As to `Cc1cc(C(=O)Nc2cccc3c2O[C@@H](CN(C)Cc2ccncc2)[C@@H](C)CN([C@@H](C)CO)C3=O)n(C)n1`, the cytotoxicity call is “inactive”.

With `C[C@H]1CN([C@@H](C)CO)C(=O)c2cc(NC(=O)Cc3ccccc3)ccc2O[C@H]1CN(C)Cc1ccc(C(F)(F)F)cc1`, the cytotoxicity call is “inactive”.

The record behind these values is the antibiotic and cytotoxicity screens of Wong et al. (2023).
